Assay results taken from PubChem BioAssay (NCATS).
Several values for one entry are separate records, joined by “and”; a condition that tells them apart may be missing. Identical values can stand only once. The inconclusive results got no clear call from the source; some entries with a clear call stand among them for comparison. Potencies of inconclusive entries are left out as doubtful fits. Activity calls are given as the source filed them. Calls come from the whole dose curve; as a rule, active = well fitted cell-killing curve with a large enough effect; inconclusive = small, poorly fitted or top-dose-only effect; inactive = flat fitted curve, though single readings scatter.

experiment: Cellular viability qHTS for adrenocortical cancer (ACC) cell line SW-13 (AID 1963989); conditions: SW-13 ACC cells viability, CellTiter-Glo, 48 h; activity (max response): stronger effect = lower value; note: nearly all actives have a fitted effect of over 65% in size;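 for activity (max response): cells grown in serum-free medium with ITS supplement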
Summary of the method: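 Compound titrations (up to 46 uM final, in DMSO) were applied to SW-13 cells for 48 h at 37C/5% CO2. Reading used CellTiter-Glo after 20 min at room temperature; fitted curves yielded IC50 and efficacy.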
% is set by controls: 0 for no effect and ±100 for the full control effect; potency is the fitted concentration of half-maximal effect; tags give direction and shape of the fitted curve.

Structure (SMILES)	Potency	activity (max response)
COC1CCN(C(=O)c2cc(Cc3n[nH]c(=O)c4ccccc34)ccc2F)CC1	inconclusive [cytotoxic, partial curve, poor fit]	–
C[C@@]12C(=O)OC(=O)[C@]1(C)C1CCC2O1	active: 7.31 µM	–
NS(=O)(=O)c1cc2c(cc1Cl)NC(C1CC3C=CC1C3)NS2(=O)=O (stereo not given)	–	inactive: -7.72%
COc1cc(N2CCN(C(C)=O)CC2)ccc1Nc1ncc(Cl)c(Nc2ccc(N3CCN(C(C)=O)CC3)cc2OC)n1	active: 25.1 µM	–
Cc1c[nH]c2ncnc(N3CCC(CN)(C(=O)Nc4cccc(OC(=O)N(C)C)c4)CC3)c12	inconclusive [cytotoxic, partial curve]	–
CCCCCCCCCCCC[N+](C)(C)Cc1ccccc1	inconclusive [cytotoxic, partial curve, poor fit]	–
CN1CCN(c2cc3c(nn2)Oc2ccccc2N3C)CC1	inconclusive [cytotoxic, single point]	–
CCS(=O)(=O)Nc1ccc(Oc2ccc(F)cc2F)c(-c2cn(C)c(=O)c3[nH]ccc23)c1	active: 2 µM	–
C/C(=N\O)c1ccc(OCC(=O)N2CCCCC2)cc1	–	inactive: -4.8%
Cn1ncc2cc(-c3cnc(N)c(Cl)c3N3CCC4(CCNC4=O)CC3)ccc21	inconclusive [cytotoxic, partial curve]	–
CCOc1cc(NC(C)=O)ccc1C(=O)OC	–	inactive: 1.95%
CC(C)(C)NC(=O)[C@@H]1CN(Cc2cccnc2)CCN1C[C@@H](O)C[C@@H](Cc1ccccc1)C(=O)N[C@H]1c2ccccc2C[C@H]1O	inconclusive [cytotoxic, single point]	–
O=C(/C=C/c1ccc(O)c(O)c1)O[C@@H]1C[C@@](OC(=O)/C=C/c2ccc(O)c(O)c2)(C(=O)O)C[C@@H](O)[C@@H]1O	–	inactive: 4.38%
NC1[C@H]2CN(c3nc4c(cc3F)c(=O)c(C(=O)O)cn4-c3ccc(F)cc3F)C[C@@H]12 (stereo not given in full)	inconclusive [cytotoxic, partial curve, poor fit]	–
CCCc1cc(C(=O)N[C@H](Cc2ccc(-c3cccc(OC(F)(F)F)c3)nc2)C(=O)N[C@@H]2CCNC2)sc1C	inconclusive [cytotoxic, single point]	–
CCOC(=O)OCC/C(SC(=O)OCC)=C(\C)N(C=O)Cc1cnc(C)nc1N	inconclusive [cytotoxic, single point]	–
CC(=O)C1CCC2C3CCC4=CC(=O)CCC4(C)C3CCC12C (stereo not given)	inconclusive [cytotoxic, single point]	–
NCC(=O)O	inconclusive [cytotoxic, single point]	–
CC(=O)c1ccc2c(c1)c1cc(C(C)=O)ccc1n2CCNC(C)C	active: 1.58 µM	–
O=C(c1ccc(Nc2nc(C3CC3)cn3c(-c4cn[nH]c4)cnc23)c(F)c1)N1CCOCC1	inconclusive [cytotoxic, partial curve, poor fit]	–

Structure (SMILES)	Potency	activity (max response)
CN1CCCC(CC2c3ccccc3Sc3ccccc32)C1 (stereo not given)	inconclusive [cytotoxic, single point]	–
Cc1cc(C)c(/C=C2\C(=O)Nc3ccccc32)[nH]1	–	inactive: 5.7% and inactive: 12.2%
COC[C@@H](c1ccc(C(F)(F)F)cc1)N1CCN(C2(C)CCN(C(=O)c3c(C)ncnc3C)CC2)C[C@@H]1C	inconclusive [cytotoxic, partial curve, poor fit]	–
O=C(/C=C/c1cccnc1)NCCCCC1CCN(C(=O)c2ccccc2)CC1	active: 0.0126 µM	–
FC(F)(F)c1ccc(Nc2nc(-c3c(C(F)(F)F)nc4ccccn34)cs2)cc1	active: 0.282 µM	–
CC(C)C(C)(C)C(C)(C)C(C)(C)S	–	inactive: 7.64%
C=CCNc1c(O)cc2c(O)c1C[C@@H](C)C[C@H](OC)[C@H](O)[C@@H](C)/C=C(/C)[C@H](OC(N)=O)[C@@H](OC)/C=C\C=C(\C)C(=O)N2	active: 3.16 µM	–
C=CC(=O)Nc1cccc(Nc2nc(Nc3ccc(OCCOC)cc3)ncc2F)c1	active: 15.8 µM	–
c1ccc(-c2ccc(CNc3nc(-c4ccccn4)nnc3-c3ccccc3)cc2)cc1	active: 11.2 µM	–
CN1CCN(C2CCN(C(=O)Nc3cc(Oc4ccc(NC(=O)C5(C(=O)Nc6ccc(F)cc6)CC5)c(F)c4)ccn3)CC2)CC1	active: 28.2 µM	–
CN(Cc1ccc(/C=C/C(=O)NO)cc1)CC12CC3CC(CC(C3)C1)C2	active: 2.24 µM	–
CN1CCN(Cc2ccc(Nc3ncc(Cl)c(Nc4ccccc4S(=O)(=O)N(C)C)n3)cc2)CC1	active: 0.75 µM	–
CCCCCCCCCCCCCCCCC(C(=O)O)C(O)(CC(=O)O)C(=O)O (stereo not given)	inconclusive [cytotoxic, single point]	–
C=CC(=O)Nc1cccc(C)c1Nc1ncc2cc(-c3c(Cl)c(OC)cc(OC)c3Cl)ccc2n1	inconclusive [cytotoxic, full curve, poor fit]	–
CCCCOc1ccc(C(=O)CCN2CCCCC2)cc1	inconclusive [cytotoxic, partial curve, poor fit]	–
COC(=O)c1ccc([C@H]2c3[nH]c4ccccc4c3C[C@H](C(=O)OC)N2C(=O)CCl)cc1	inconclusive [cytotoxic, full curve, poor fit]	–
CN[C@@H]1C[C@H]2O[C@@](C)([C@@H]1OC)n1c3ccccc3c3c4c(c5c6ccccc6n2c5c31)C(=O)N[C@H]4O	active: 0.376 µM	–
COC(=O)C1=C(C)NC(COC(N)=O)=C(C(=O)OC(C)C)C1c1cccc(Cl)c1Cl (stereo not given)	inconclusive [cytotoxic, single point]	–
CC(C)(C)c1[nH]cnc1/C=c1\[nH]c(=O)/c(=C/c2ccccc2)[nH]c1=O	active: 0.0398 µM	–
CNc1ncc2cc(-c3cc(NC(=O)NCCC(C)(C)C)c(F)cc3C)c(C)nc2n1	inconclusive [cytotoxic, partial curve]	–
